Measurements taken from the supplement of paper PMC10126150.
Values marked as one replicate rest on one cluster of the flow cell; about a third of the high ones do not repeat.

Test system: ATP
Assay: switch fluorescence ratio, 500 uM ATP over buffer (Cy3 cluster intensity, sum of 5 cycles each) (fold (ratio)); higher = stronger signal-on switching upon ATP binding; sequences stand for … in TCGTCGGCAGCGTCAGATGTGTATAAGAGACAGTTTTTTTTTTTTTTTTTTTTTTTTT…TC
Conditions: aptamer strand: ATP DNA aptamer (quencher-CACCTGGGGGAGTATTGCGGAGGAAGG + anchor), 100 nM annealed; ATP concentration: 500 uM; one replicate
Procedure, shortened: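 Per cluster, summed Cy3 intensity from the target cycles was divided by that from the buffer cycles to give the fluorescence ratio, then averaged per switch-domain sequence. Clusters outside 100-1000 RFU were excluded. The Cy3-labelled switching-strand clusters, on a modified Illumina MiSeq flow-cell, were annealed to 100 nM quencher-labelled ATP aptamer and imaged in selection buffer, then after 15 min with 500 uM ATP at 22 °C, for five cycles with NaOH stripping and re-annealing between them.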
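Also: ATP exposure 15 min at 22 °C before imaging.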

Sequence	switch fluorescence ratio
TGACACTAGA	1.02
GACGATCTTC	1
AATCCTTCG	1.29
AACATCACCA	1.17
GTGAATGGGT	1.03
ATAAGTGTGA	0.997
AGCTCAGACA	0.992
GCACGTCGCC	1.11
AGTTATGGAG	1.02
CGTGATAGGG	1.01
TAGATAACCC	0.963
ACACAGGATA	1.04
TATAAGTCTG	1.05
TGCTTGTGGT	0.969
GCCAAAAAGT	0.982
GTCGGTAGGC	0.992
TGTTAAGCTA	0.993
AACGCGTCTT	1.05
GCCATGGATT	1.01
GGGTTCACGT	0.982
GTCTACTGTG	1.02
TTGGACTAAT	0.931
AACGACGCGC	2.31
AATACGTCTA	1.07
TGTAAGGAGA	1.03

Sequence	switch fluorescence ratio
CGTGCGTCAC	1.07
AAAGCCATTC	1.04
TTCAGACGCT	1.48
CATGCCTATG	1.01
GAGCAAAGCC	0.99
GTATCAGGTC	1
TAGGGCTTGC	0.874
AATTGGCCGT	1.03
GGTCTTAGGT	0.996
CAGGCCGGCC	1.04
GACATAGTCG	1
TATTTGACGT	0.988
CAGGCGATCC	1.15
GGACGACTGT	1
GGGGTCCCTG	0.955
CGAGGGCTGT	0.985
CTCATTGCAG	0.987
AAATATTGCC	0.988
CTGCTGATAG	1.11
GCTAAGCCCG	1.01
CTCTAGCTAA	1.86
AGCTGGGTCT	0.991
TTTCAGCTCG	1.01
TTCCTGAAGA	1.03
GATGGAGAGG	0.984

Sequence	switch fluorescence ratio
GGCACGGCCA	1.01
TGCTTCCGGG	1.27
ACAGCGGACC	1.04
CGCGGTTTGG	1.03
GTCTTGTTG	0.988
TTAAATGAGG	0.992
ACATGTTGA	0.934
AGTGTAAGGG	0.979
CATGGCACC	1.05
TAGACCGGTC	1.02
CGCCATCTGA	0.99
TCGTATTGAT	0.967
TATCCGAACT	1
TGGGCCATCT	0.997
TTTGCACCAC	1.07
CGGTATCATT	0.993
ATTGTCGGCG	1.02
GGGGATCCTA	0.965
TAGCCCAGGA	1.02
GGAACCCCCT	1.39
TAGTTACTCA	1.04
TCGCCAAAGT	1.04
GCGCGAAATT	0.982
TTGCCGGATT	1.04
GGTGGCATTC	1.06

Sequence	switch fluorescence ratio
GGGCTAAGGA	0.943
ACCTCTGGGC	1.07
TAAAATAGT	0.984
CTCTGGATGC	2.23
ATATAGGTT	0.978
CTTCTCCCGG	1.56
TATACGTGTA	1.05
TCTGTGCACC	1.02
AATTTCCCTG	1.28
GATAGTAGAA	0.981
TACGGTTAAC	1.08
CCTACCGGCC	1.5
TTGGAACCGG	0.984
CAAGGTTTTA	0.977
AACGCAGGTC	1.24
CTTCATTCCG	2.1
GTGTTCGGTT	0.959
GTCGCCCCTG	1.01
ATACTGGCCA	1.04
GCCTTATCTG	1.03
TGTAAAATCC	1.01
GTTATCTTTT	0.959
TTAAGAAGCT	1.01
CGTCTTTCTC	1
TTATTTCCTG	0.984

Sequence	switch fluorescence ratio
ATATGGCCAT	0.982
AAACTAATAG	1.02
AAGGTCGGA	0.957
GGCTCTCCTT	0.983
GCCCTTGGAA	0.998
CTGCCTTATA	1.01
ACTTATGCTG	0.928
CAAATACGGG	1.03
GATTGGTTCT	0.999
TGTTGAGCTG	1
CGTGTGAAGA	1.04
TTATCAGCAA	2.28
CTTCATGTTT	0.981
GACGCGGAA	1.07
CCATGCTTGA	0.983
CCCGTCGTTC	1.03
AGGGAACGGA	0.991
GTCTATCCGA	0.99
TCGATGATA	0.979
TGCCGTAGAA	0.997
GTGCTTAGTG	0.984
CATCGATCCC	1.01
AAAAAACACT	1
ATCAGCTTTT	1.01
ATTGTCTCCT	1.03

Sequence	switch fluorescence ratio
TTAGCCTGCG	1.08
CGTAGTACAG	0.981
TCGCACAGAG	1.04
TCTCAGGCGT	1.08
TCTCTTGTAA	1.02
TCAAATAGTA	0.997
GACGCGAGGC	2.63
TGACCCGCCA	1.5
ATCGCTGCCG	0.966
GCGGTGAGTA	0.967
TCATTGACAC	1.1
TTATTTGGCA	0.987
GGGCTGGGAT	1.08
TATTTCAGTT	0.957
CAGGTGGAAA	1.04
TCATATGCGG	1.02
CCGTTGTAAA	1.12
ACGAAATGCG	1.1
GCAAACTCGG	1.15
ATTGAATTG	0.974
TGAACCGCGG	0.987
AGGAGTCAGA	0.982
TCCTTGCAT	3.35
ATGCCGGGCC	0.955
CCGGAGAG	1.04

Sequence	switch fluorescence ratio
AGCACTACCC	1.6
CCATGATCTG	0.993
CACGACGCGC	4.18
CTCGAGTGAT	1.08
GCAACCGCGG	0.986
AGGAGCACAG	1.01
TGGATTGTCA	0.996
ACTACTGTGA	1.05
GCTCTGATCG	1.05
AATTTTTCAA	1.02
GATATTCCAA	1.03
TGATTCAGTC	1
CTTGATTCA	0.992
GCGTAAGACG	1.15
AAAACGGTTT	1.01
CTTGACTTGG	1.01
TGGCCCTGAT	0.966
CGTTTTAGAT	0.95
CGGTTGCAGT	0.966
CGAGCCTTCA	1.36
TAATTCGAAG	0.987
GCGGGGTCGA	1.03
CCAAGTAGGG	1.06
GTTCGGCTA	0.995
AAGGTATGGT	0.994

Sequence	switch fluorescence ratio
TATATAATAT	1
GATGGGTCGG	0.936
ATTGTTGGGT	0.99
ACCGAGAGAG	0.994
CGAGTTCCGG	1.04
GACGGCGTGC	1.05
ACTGTCGCCC	1.01
TTTGTATTTG	0.974
TTGCCGAGTT	0.961
TGCGTTTAGT	1.03
AGCCAGTAAT	1.05
CCGAGGTAAA	1.84
CTTATGAATT	1.04
TTGCCAACAT	1.03
ACCTGGTATT	1.03
AGAATGGGGT	1
GGTTCATTGT	0.933
TCACAGCCTA	0.986
GTGTAAGTGG	0.986
AAACGGGCAA	1.05
ATTGAGTTTC	1.04
AAACTGTCAT	0.991
GCTAATTCTC	1.08
AATAGGCTAG	1.01
GTATTAAGTG	0.992
